Data as given in the supplement of paper PMC8948288.
The sequences are guide strands of siRNAs; only the seed at positions 2 to 7 varies.

Columns and labels:
GL261 = assay: cell viability relative to siNT1 (ATP content); H4 human neuroglioma and GL261 mouse glioma; higher = less toxic; settings: siRNA concentration 25 nM; 96 h; mouse
Experimental: (§1)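 Arrayed screen of all 4096 6mer seeds. Each seed sits at guide-strand positions 2-7 of a neutral 19mer siRNA backbone (siNT1-based, passenger strand 2'-O-methyl modified at positions 1-2 to block RISC loading, 3' DNA overhangs). The guide strand is built here as U + seed + ACAUGUAAACCA. Cells were reverse transfected in triplicate in 384-well plates (H4 at 10 nM, GL261 at 25 nM) with Lipofectamine RNAiMAX. Viability was read as ATP content (CellTiter-Glo) 96 h after transfection and normalised to siNT1 (%).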

H4 = assay: as above; settings: siRNA concentration 10 nM; 96 h; human
Experimental: as §1
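Note: cells reverse transfected with siRNA duplexes via lipid reagent, ATP read by luminescence, triplicate wells, values scaled to mean viability with non-targeting control siNT1.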

| Sequence | cell viability (GL261) [%] | cell viability (H4) [%] |
| --- | --- | --- |
| UACAAAGACAUGUAAACCA | 57.4 | 83.5 |
| UACAAAUACAUGUAAACCA | 65.9 | 84.6 |
| UACAACAACAUGUAAACCA | 62.4 | 82.1 |
| UACAACCACAUGUAAACCA | 26.5 | 26.2 |
| UACAACGACAUGUAAACCA | 62.4 | 92.9 |
| UACAACUACAUGUAAACCA | 38.9 | 62.9 |
| UACAAGAACAUGUAAACCA | 61.5 | 88.3 |
| UACAAGCACAUGUAAACCA | 39 | 69.4 |
| UACAAGGACAUGUAAACCA | 52.6 | 56.5 |
| UACAAGUACAUGUAAACCA | 50.7 | 74.6 |
| UACAAUAACAUGUAAACCA | 60.8 | 106 |
| UACAAUCACAUGUAAACCA | 52.2 | 42.9 |
| UACAAUGACAUGUAAACCA | 72.5 | 81.7 |
| UACAAUUACAUGUAAACCA | 51.3 | 85.4 |
| UACACAAACAUGUAAACCA | 47.8 | 76.2 |
| UACACACACAUGUAAACCA | 44.5 | 77.1 |
| UACACAGACAUGUAAACCA | 47.1 | 67.1 |
| UACACAUACAUGUAAACCA | 48.4 | 105 |
| UACACCAACAUGUAAACCA | 48.7 | 63.8 |
| UACACCCACAUGUAAACCA | 32.2 | 65.6 |
| UACACCGACAUGUAAACCA | 63.3 | 77.2 |
| UACACCUACAUGUAAACCA | 40.9 | 36.7 |

| Sequence | cell viability (GL261) [%] | cell viability (H4) [%] |
| --- | --- | --- |
| UACACGAACAUGUAAACCA | 61.6 | 87 |
| UACACGCACAUGUAAACCA | 30.3 | 37.7 |
| UACACGGACAUGUAAACCA | 39.7 | 65.3 |
| UACACGUACAUGUAAACCA | 60.4 | 80.2 |
| UACACUAACAUGUAAACCA | 60.2 | 93.4 |
| UACACUCACAUGUAAACCA | 34.4 | 67.1 |
| UACACUGACAUGUAAACCA | 66.4 | 77.7 |
| UACACUUACAUGUAAACCA | 54 | 89.5 |
| UACAGAAACAUGUAAACCA | 63.8 | 85.6 |
| UACAGACACAUGUAAACCA | 19.3 | 41.7 |
| UACAGAGACAUGUAAACCA | 64.5 | 105 |
| UACAGAUACAUGUAAACCA | 50.5 | 47.6 |
| UACAGCAACAUGUAAACCA | 46.6 | 79.2 |
| UACAGCCACAUGUAAACCA | 11.6 | 52.3 |
| UACAGCGACAUGUAAACCA | 55.3 | 88.8 |
| UACAGCUACAUGUAAACCA | 23.9 | 57.1 |
| UACAGGAACAUGUAAACCA | 69.4 | 78.7 |
| UACAGGCACAUGUAAACCA | 21.7 | 31.4 |
| UACAGGGACAUGUAAACCA | 48.4 | 65.5 |
| UACAGGUACAUGUAAACCA | 53.1 | 58.5 |
| UACAGUAACAUGUAAACCA | 83 | 90.8 |
| UACAGUCACAUGUAAACCA | 26.5 | 58.9 |

| Sequence | cell viability (GL261) [%] | cell viability (H4) [%] |
| --- | --- | --- |
| UACAGUGACAUGUAAACCA | 67.8 | 76.4 |
| UACAGUUACAUGUAAACCA | 55.8 | 87.7 |
| UACAUAAACAUGUAAACCA | 62 | 97.2 |
| UACAUACACAUGUAAACCA | 49 | 56.1 |
| UACAUAGACAUGUAAACCA | 62 | 83.3 |
| UACAUAUACAUGUAAACCA | 68.3 | 81.6 |
| UACAUCAACAUGUAAACCA | 63.4 | 87.1 |
| UACAUCCACAUGUAAACCA | 33.3 | 28.5 |
| UACAUCGACAUGUAAACCA | 60.2 | 102 |
| UACAUCUACAUGUAAACCA | 30.3 | 76.1 |
| UACAUGAACAUGUAAACCA | 59.3 | 95.1 |
| UACAUGCACAUGUAAACCA | 58.5 | 16.5 |
| UACAUGGACAUGUAAACCA | 41.1 | 74.1 |
| UACAUGUACAUGUAAACCA | 41.4 | 43.8 |
| UACAUUAACAUGUAAACCA | 68.4 | 89.2 |
| UACAUUCACAUGUAAACCA | 43.7 | 92 |
| UACAUUGACAUGUAAACCA | 61.9 | 89 |
| UACAUUUACAUGUAAACCA | 55 | 94.3 |
| UACCAAAACAUGUAAACCA | 60.4 | 114 |
| UACCAACACAUGUAAACCA | 41.8 | 85.9 |
| UACCAAGACAUGUAAACCA | 50.6 | 87.3 |
| UACCAAUACAUGUAAACCA | 58.3 | 70.5 |

| Sequence | cell viability (GL261) [%] | cell viability (H4) [%] |
| --- | --- | --- |
| UACCACAACAUGUAAACCA | 48.1 | 104 |
| UACCACCACAUGUAAACCA | 20.3 | 26.2 |
| UACCACGACAUGUAAACCA | 45.4 | 100 |
| UACCACUACAUGUAAACCA | 45.6 | 82.9 |
| UACCAGAACAUGUAAACCA | 47.9 | 79.8 |
| UACCAGCACAUGUAAACCA | 15.4 | 16.6 |
| UACCAGGACAUGUAAACCA | 42.3 | 77.3 |
| UACCAGUACAUGUAAACCA | 36.7 | 56.6 |
| UACCAUAACAUGUAAACCA | 61.5 | 96.3 |
| UACCAUCACAUGUAAACCA | 39.8 | 73.6 |
| UACCAUGACAUGUAAACCA | 56.8 | 86.1 |
| UACCAUUACAUGUAAACCA | 39.8 | 81.2 |
| UACCCAAACAUGUAAACCA | 73 | 85 |
| UACCCACACAUGUAAACCA | 29.3 | 70 |
| UACCCAGACAUGUAAACCA | 55.9 | 62.3 |
| UACCCAUACAUGUAAACCA | 70.3 | 58.5 |
| UACCCCAACAUGUAAACCA | 59.5 | 37.5 |
| UACCCCCACAUGUAAACCA | 25.4 | 20.1 |
| UACCCCGACAUGUAAACCA | 62.6 | 90.6 |
| UACCCCUACAUGUAAACCA | 43.7 | 25.9 |
